Data taken from the supplement of paper PMC10126150.
Values marked as one replicate rest on one cluster of the flow cell; about a third of the high ones do not repeat.

System: ATP
Assay: switch fluorescence ratio, 500 uM ATP over buffer (Cy3 cluster intensity, sum of 5 cycles each) (fold (ratio)); higher = stronger signal-on switching upon ATP binding; sequences stand for … in TCGTCGGCAGCGTCAGATGTGTATAAGAGACAGTTTTTTTTTTTTTTTTTTTTTTTTT…TC
Details: aptamer strand: ATP DNA aptamer (quencher-CACCTGGGGGAGTATTGCGGAGGAAGG + anchor), 100 nM annealed; ATP concentration: 500 uM; one replicate
Summary of the method: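 Values give the fluorescence ratio for each switch-domain sequence, averaged from per-cluster ratios of summed target-cycle to summed buffer-cycle Cy3 intensity. The Cy3-labelled switching-strand clusters sat on a modified Illumina MiSeq flow-cell, were annealed to 100 nM quencher-labelled ATP aptamer, and were imaged in selection buffer, then after 15 min with 500 uM ATP at 22 °C. Five cycles ran with NaOH stripping and re-annealing between them, and clusters outside 100-1000 RFU were excluded.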
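Note: ATP exposure 15 min at 22 °C before imaging.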

Sequence | switch fluorescence ratio
GGGGATGGCC | 0.986
CGGGGAACTA | 1.07
AGAAACCGC | 1.06
GTGTAATTT | 0.981
AATGGGACT | 0.985
CTTGCCATGG | 1.04
AAAATCACTT | 1.06
CCTGTTGGCC | 0.991
ACTTGACAAA | 1.13
AAGGCATAAA | 0.939
AAGTCTATCC | 0.996
AAATTTTACA | 1.08
AACCTATTC | 1.07
AGCGCCTGAG | 1.02
TTATATCACC | 1.05
AAGCAGAACG | 1.01
CTAATGTAAG | 1.02
AAGTTGCCGG | 1.03
AATACGGGTT | 1.02
AACAGAGCGG | 0.984
AAAATCTTTT | 1.04
ACCGTTCACT | 1.16
TCAATACCCA | 1.08
GGACCAAGAT | 1.01
GGGAAGTGGG | 1.02
AATGATTTGT | 0.988

Sequence | switch fluorescence ratio
CGTAAAGAGT | 1.06
CGTTATACGA | 1.07
ACGGGTTGTA | 0.977
ATCCGCCGGA | 1.2
AAAAGCAGAA | 1.07
AGCGTCCCAT | 1.05
CTTGGGCACG | 1.05
CCTTGACGGC | 1.11
GTCGTAAATC | 1.09
GGCGCTATCG | 1.04
TTCTCGGGAG | 1.01
GCTTGCTGGT | 0.967
TCCTGACGAG | 1.06
TTAGACGTCC | 1.04
TATAAAACCA | 0.999
TCACGGAATA | 1.5
GTGGGTATCT | 1.01
AGAGAAGGGG | 1.02
TGTTCAAGGG | 0.993
TCCTTCGGGA | 1.64
GCGTGGGGAC | 1.02
AAAGTATCCA | 1
GTCTAACCGG | 1.03
CATCGGCGAC | 3.09
ATTACACCGA | 1.05
ATCCCCGGGC | 1.1

Sequence | switch fluorescence ratio
CGAGCAGTCG | 1.03
CGTTGGCCTG | 1
GGTATTCTTG | 1
GTATTGTCTA | 0.986
TGGGGATCCA | 0.964
ATGCTTTGT | 0.948
TAAAACCGT | 1.03
CAGATGGGAT | 0.972
TAATTTGTA | 1.01
GGTCGGCAGT | 0.968
AAGTATTGTA | 0.969
AATAGGGTAA | 1.01
GCGTACCTTT | 0.969
AGCCAATGCC | 1.12
ATGCAGCGTA | 1.01
TTCTAGAGCT | 1
TAGTTCAGCT | 0.93
GGTCCGTAT | 1.05
ACCATAATAC | 3.46
GAGCCGGGTG | 0.986
GTAGGGCCGC | 0.995
ACTAGGAAGA | 0.994
CACAGTGCTC | 1.16
CAGTAGGATA | 1.01
CATTAACGGA | 0.994
TGATGTTGGA | 1.01

Sequence | switch fluorescence ratio
TGCGCAAAGC | 1.25
GGCTTAGCGT | 1.03
CCTTATTCCG | 2.01
TTTCTATCGG | 0.992
TGGCAAGGAG | 0.97
CAATGCCTAC | 1.13
GTCTCTGGG | 1
TAGAAGAATG | 0.992
AGTAGTTAAA | 1.01
TTATGGGATA | 1
GGTGTGGACT | 0.969
TTTCCTTTAT | 1.01
GGGACAGTCC | 0.962
GGGGAGGAAC | 1.05
AAGTTAACAT | 1.04
ATTCGTTCCA | 1.03
TCGTCCATGG | 1.03
AACGACTGGT | 1
GTTGTTTGGA | 0.984
AGAAGGTGTA | 0.983
ACATTTAGTG | 0.98
AATAACATCA | 1
CGTCCCCTTC | 1.07
ATTGACCACG | 0.975
CAGTCCGGT | 1.04
TCAGTCCTAA | 1.01

Sequence | switch fluorescence ratio
AAATACAAGT | 1.08
CGGCGCGCCC | 1.06
TCGTGATCGG | 0.979
CGCACCAAA | 1.06
CGCTCGAAAT | 1.06
TAGGACTTTA | 1
CAAAAAAACG | 1.02
GGGGCTGTCC | 0.991
GAAAAATTGA | 0.964
CAACGATTAC | 2.04
TCTAACTGGT | 0.978
CAACGACGAT | 1.1
GACTCAAGAG | 1.01
ACGGTATAAA | 1.16
TATGTGGTAC | 1.08
CAGGCGGCGA | 1
TTGATCGGGA | 0.941
TTTGATAACA | 1.03
ATTGATGGAT | 1.02
GAGTGAATG | 0.963
AATACACTTG | 1
GTAGTTCCCT | 1.02
ACAAGAAGTA | 0.99
CGATTAGGA | 0.974
ATCTCTTCGT | 0.998
TTAATCGTCG | 1.09

Sequence | switch fluorescence ratio
CAACCCAGAC | 1.58
GGGGGCTCGA | 1.02
TTTCTCTATA | 1
CTATTTTACG | 1.03
TAAATGATGG | 0.961
GGTTCGAGCC | 1.06
AGTTAAGTAA | 0.989
GACCACGATA | 1.17
ATAATTTTAA | 0.996
TCGTTACTGG | 0.972
CGCGAAATTC | 1.05
GGTATGCGTT | 1.05
ATCGACTCAG | 1.01
TTCGGACGGC | 0.998
GACTATGTAC | 1.1
GTATATGCGG | 0.998
CACATTAGGG | 1.05
GGGGATCGGT | 0.979
CAGAATTAAA | 1.01
TAAAAGGCTC | 0.971
CCTAGTTAGG | 0.987
AGTACTACC | 1.13
TAGGTTGAGC | 0.96
